Laboratory results: a collection of fitness landscapes (doi:10.1126/science.1257360)
The list shows a part of the results.

B1: PhoQ; a variant is named by its letters at X, in order, P23837 (parent)
chain: MKKLLRLFFPLSLRVRFLLATAAVVLVLSLAYGMVALIGYSVSFDKTTFRLLRGESNLFYTLAKWENNKLHVELPENIDKQSPTMTLIYDENGQLLWAQRDVPWLMKMIQPDWLKSNGFHEIEADVNDTSLLLSGDHSIQQQLQEVREDDDDAEMTHSVAVNVYPATSRMPKLTIVVVDTIPVELKSSYMVWSWFIYVLSANLLLVIPLLWVAAWWSLRPIEALAKEVRELEEHNRELLNPATTRELTSLVRNLNRLLKSERERYDKYRTTLTDLTHSLKTPLXXLQXXLRSLRSEKMSVSDAEPVMLEQISRISQQIGYYLHRASMRGGTLLSRELHPVAPLLDNLTSALNKVYQRKGVNISLDISPEISFVGEQNDFVEVMGNVLDNACKYCLEFVEISARQTDEHLYIVVEDDGPGIPLSKREVIFDRGQRVDTLRPGQGVGLAVAREITEQYEGKIVAGESMLGGARMEVIFGRQHSAPKDE

Variants of: B1
Experiment: enrichment ratio after two sorts for PhoP signalling (ratio (wild type AVST 3.29)); higher = more functional
Settings: with PhoP (E. coli)

| Variant | enrichment ratio |
| --- | --- |
| KCTG | ≤ 0.25 |
| QYSK | ≤ 0.25 |
| VWEN | ≤ 0.25 |
| NTYH | ≤ 0.25 |
| NKKR | ≤ 0.25 |
| NFPM | ≤ 0.25 |
| TDEW | ≤ 0.25 |
| YCMC | ≤ 0.25 |
| QFTG | 0.485 |
| PDVH | ≤ 0.25 |
| FMKQ | ≤ 0.25 |
| YYFP | ≤ 0.25 |
| RTHD | ≤ 0.25 |
| FLLI | 0.778 |
| GWEY | ≤ 0.25 |
| LGGA | ≤ 0.25 |
| FIPS | ≤ 0.25 |
| PLPA | 1.07 |
| MKFW | ≤ 0.25 |
| NLEQ | ≤ 0.25 |
| KKVN | ≤ 0.25 |
| LPFI | ≤ 0.25 |
| RCWG | ≤ 0.25 |
| TYTD | ≤ 0.25 |
| LSTD | ≤ 0.25 |
| YNDI | ≤ 0.25 |

| Variant | enrichment ratio |
| --- | --- |
| SPTK | ≤ 0.25 |
| HWFA | ≤ 0.25 |
| GQLT | 3.79 |
| QGNS | ≤ 0.25 |
| PAMQ | ≤ 0.25 |
| GIFE | ≤ 0.25 |
| SMWF | ≤ 0.25 |
| EFNK | ≤ 0.25 |
| NWGR | ≤ 0.25 |
| VKLY | ≤ 0.25 |
| GLFR | ≤ 0.25 |
| YMSL | ≤ 0.25 |
| WAAM | ≤ 0.25 |
| EHWQ | ≤ 0.25 |
| YTDV | ≤ 0.25 |
| RTRV | ≤ 0.25 |
| ELDS | ≤ 0.25 |
| AISK | 6.13 |
| PTDY | ≤ 0.25 |
| TQWF | 7.56 |
| KRCA | ≤ 0.25 |
| KIKG | ≤ 0.25 |
| AMSN | 9.34 |
| YCWP | ≤ 0.25 |
| AHDG | ≤ 0.25 |
| HQIY | ≤ 0.25 |

| Variant | enrichment ratio |
| --- | --- |
| VSDH | ≤ 0.25 |
| ERIL | ≤ 0.25 |
| MLYN | 1.73 |
| FPEP | ≤ 0.25 |
| TQVG | 12.2 |
| QNTK | ≤ 0.25 |
| NMNH | ≤ 0.25 |
| AELT | 6.58 |
| SAHQ | ≤ 0.25 |
| MEPY | ≤ 0.25 |
| GPDE | ≤ 0.25 |
| NAMS | ≤ 0.25 |
| TNCD | ≤ 0.25 |
| GCCF | 4.28 |
| NETC | ≤ 0.25 |
| YKQH | ≤ 0.25 |
| PYAC | ≤ 0.25 |
| QHEC | ≤ 0.25 |
| LRNR | ≤ 0.25 |
| LHPK | ≤ 0.25 |
| GYIM | 0.349 |
| FCKD | ≤ 0.25 |
| WMQG | ≤ 0.25 |
| TQTF | 0.372 |
| MPWS | ≤ 0.25 |
| VPGD | ≤ 0.25 |

| Variant | enrichment ratio |
| --- | --- |
| VKFC | ≤ 0.25 |
| PCFA | ≤ 0.25 |
| MFDD | ≤ 0.25 |
| RMLV | ≤ 0.25 |
| ATKH | ≤ 0.25 |
| EHFI | ≤ 0.25 |
| HKTE | ≤ 0.25 |
| IHDP | ≤ 0.25 |
| DHIW | ≤ 0.25 |
| DPMN | ≤ 0.25 |
| FGPA | ≤ 0.25 |
| ASSC | 5.91 |
| VFSG | ≤ 0.25 |
| RRMN | ≤ 0.25 |
| KDVI | ≤ 0.25 |
| DVKN | ≤ 0.25 |
| KSDK | ≤ 0.25 |
| VQWT | ≤ 0.25 |
| VIYF | ≤ 0.25 |
| KQQT | ≤ 0.25 |
| KFTL | ≤ 0.25 |
| PMKP | ≤ 0.25 |
| APCI | ≤ 0.25 |
| DVNK | ≤ 0.25 |
| NSMN | ≤ 0.25 |
| YSQG | ≤ 0.25 |

| Variant | enrichment ratio |
| --- | --- |
| DDLS | ≤ 0.25 |
| GECI | 7.86 |
| EVGM | ≤ 0.25 |
| TSKC | ≤ 0.25 |
| TKIN | ≤ 0.25 |
| YVMI | ≤ 0.25 |
| VLNQ | ≤ 0.25 |
| LTAK | ≤ 0.25 |
| GCVR | ≤ 0.25 |
| NRPN | ≤ 0.25 |
| LRPV | ≤ 0.25 |
| KCHN | 3.86 |
| GNTG | ≤ 0.25 |
| GLSF | 4.58 |
| TPCR | ≤ 0.25 |
| HLYG | ≤ 0.25 |
| VSFQ | ≤ 0.25 |
| EVMV | ≤ 0.25 |
| HRDT | ≤ 0.25 |
| GCMH | 5.77 |
| VRFV | ≤ 0.25 |
| MQYR | ≤ 0.25 |
| HNMG | ≤ 0.25 |
| QYSE | ≤ 0.25 |
| NKDM | ≤ 0.25 |
| AQDR | ≤ 0.25 |

| Variant | enrichment ratio |
| --- | --- |
| STYD | ≤ 0.25 |
| KGFT | ≤ 0.25 |
| QHGW | ≤ 0.25 |
| LMIL | ≤ 0.25 |
| TADN | ≤ 0.25 |
| PQDQ | ≤ 0.25 |
| RKKA | ≤ 0.25 |
| VFFE | ≤ 0.25 |
| MKSM | ≤ 0.25 |
| ILPF | ≤ 0.25 |
| WHVF | ≤ 0.25 |
| LEDG | ≤ 0.25 |
| TDEP | ≤ 0.25 |
| YRWP | ≤ 0.25 |
| WDVA | ≤ 0.25 |
| SKDH | ≤ 0.25 |
| LYCG | ≤ 0.25 |
| QSYA | 1.81 |
| RCSD | ≤ 0.25 |
| IMAM | ≤ 0.25 |
| KMCH | ≤ 0.25 |
| KVPP | ≤ 0.25 |
| KLYY | ≤ 0.25 |
